{"source": "the supplement of paper PMC8728848", "binders": {"B1": {"name": "Spy0252 (Streptococcus pyogenes), Q9A1I9_STRP1 (protein)", "chain": "MNMKKLASLAMLGASVLGLAACGGKSQKEAGASKSDTAKTEITWWAFPVFTQEKAEDGVGTYEKKLIAAFEKANPEIKVKLETIDFTSGPEKITTAIEAGTAPDVLFDAPGRIIQYGKNGKLADLNDLFTEEFTKDVNNDKLIQASKAGDTAYMYPISSAPFYMALNKKMLKDAGVLDLVKEGWTTDDFEKVLKALKDKGYNPGSFFANGQGGDQGPRAFFANLYSSHITDDKVTKYTTDDANSIKAMTKISNWIKDGLMMNGSQYDGSADIQNFANGQTSFTILWAPAQPGIQAKLLEASKVDYLEIPFPSDDGKPELEYLVNGFAVFNNKDEQKVAASKTFIQFIADDKEWGPKNVVRTGAFPVRTSYGDLYKDKRMEKIAEWTKFYSPYYNTIDGFAEMRTLWFPMVQAVSNGDEKPEDALKAFTEKANKTIKKTQ"}}, "experiment_in_all_cases": "glycan array binding signal (z-score within array); higher = stronger binding", "conditions_in_all_cases": "glycan notation: IUPAC condensed, linker removed", "key": {"[1]": {"molecular_target": "Fuc(a1-2)Gal", "summary_of_the_method": "(§1)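 Columns mapping to the same glycan were averaged after glycan names were converted to IUPAC-condensed notation. The data come from 3228 arrays in the Consortium for Functional Glycomics database, limited to those with an available protein sequence. Binding is reported as a within-array Z-score averaged across arrays of one protein sequence and across linkers.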"}, "[2]": {"molecular_target": "Fuc(a1-2)Gal(b1-3)GalNAc", "summary_of_the_method": "as §1"}, "[3]": {"molecular_target": "Fuc(a1-2)Gal(b1-3)GalNAc(b1-3)Gal", "summary_of_the_method": "as §1"}, "[4]": {"molecular_target": "Fuc(a1-2)Gal(b1-3)GalNAc(b1-3)Gal(a1-4)Gal(b1-4)Glc", "summary_of_the_method": "as §1"}, "[5]": {"molecular_target": "Fuc(a1-2)Gal(b1-3)GalNAc(b1-4)[Neu5Ac(a2-3)]Gal(b1-4)Glc", "summary_of_the_method": "as §1"}, "[6]": {"molecular_target": "Fuc(a1-2)Gal(b1-3)GlcNAc", "summary_of_the_method": "as §1"}, "[7]": {"molecular_target": "Fuc(a1-2)Gal(b1-3)GlcNAc(b1-2)Man(a1-3)[Fuc(a1-2)Gal(b1-3)GlcNAc(b1-2)Man(a1-6)]Man(b1-4)GlcNAc(b1-4)GlcNAc", "summary_of_the_method": "as §1"}, "[8]": {"molecular_target": "Fuc(a1-2)Gal(b1-3)GlcNAc(b1-3)Gal(b1-4)Glc", "summary_of_the_method": "as §1"}, "[9]": {"molecular_target": "Fuc(a1-2)Gal(b1-3)GlcNAc(b1-3)[Gal(b1-4)[Fuc(a1-3)]GlcNAc(b1-6)]Gal(b1-4)Glc", "summary_of_the_method": "as §1"}, "[10]": {"molecular_target": "Fuc(a1-2)Gal(b1-3)[Fuc(a1-4)]GlcNAc", "summary_of_the_method": "as §1"}, "[11]": {"molecular_target": "Fuc(a1-2)Gal(b1-3)[Fuc(a1-4)]GlcNAc(b1-2)Man(a1-3)[Fuc(a1-2)Gal(b1-3)[Fuc(a1-4)]GlcNAc(b1-2)Man(a1-6)]Man(b1-4)GlcNAc(b1-4)GlcNAc", "summary_of_the_method": "as §1"}, "[12]": {"molecular_target": "Fuc(a1-2)Gal(b1-4)Glc", "summary_of_the_method": "as §1"}, "[13]": {"molecular_target": "Fuc(a1-2)Gal(b1-4)Glc6S", "summary_of_the_method": "as §1"}, "[14]": {"molecular_target": "Fuc(a1-2)Gal(b1-4)GlcNAc", "summary_of_the_method": "as §1"}, "[15]": {"molecular_target": "Fuc(a1-2)Gal(b1-4)GlcNAc(b1-2)Man(a1-3)[Fuc(a1-2)Gal(b1-4)GlcNAc(b1-2)Man(a1-6)]Man(b1-4)GlcNAc(b1-4)GlcNAc", "summary_of_the_method": "as §1"}, "[16]": {"molecular_target": "Fuc(a1-2)Gal(b1-4)GlcNAc(b1-3)Gal(b1-4)GlcNAc", "summary_of_the_method": "as §1"}, "[17]": {"molecular_target": "Fuc(a1-2)Gal(b1-4)GlcNAc(b1-3)Gal(b1-4)GlcNAc(b1-3)Gal(b1-4)GlcNAc", "summary_of_the_method": "as §1"}, "[18]": {"molecular_target": "Fuc(a1-2)Gal(b1-4)GlcNAc6S", "summary_of_the_method": "as §1"}, "[19]": {"molecular_target": "Fuc(a1-2)Gal(b1-4)[Fuc(a1-3)]GlcNAc", "summary_of_the_method": "as §1"}, "[20]": {"molecular_target": "Fuc(a1-2)Gal(b1-4)[Fuc(a1-3)]GlcNAc(b1-2)Man(a1-3)[Fuc(a1-2)Gal(b1-4)[Fuc(a1-3)]GlcNAc(b1-2)Man(a1-6)]Man(b1-4)GlcNAc(b1-4)GlcNAc", "summary_of_the_method": "as §1"}, "[21]": {"molecular_target": "Fuc(a1-2)Gal(b1-4)[Fuc(a1-3)]GlcNAc(b1-3)Gal(b1-4)[Fuc(a1-3)]GlcNAc", "summary_of_the_method": "as §1"}, "[22]": {"molecular_target": "Fuc(a1-2)Gal(b1-4)[Fuc(a1-3)]GlcNAc(b1-3)Gal(b1-4)[Fuc(a1-3)]GlcNAc(b1-3)Gal(b1-4)[Fuc(a1-3)]GlcNAc", "summary_of_the_method": "as §1"}, "[23]": {"molecular_target": "Fuc(a1-2)Gal6S(b1-4)Glc", "summary_of_the_method": "as §1"}, "[24]": {"molecular_target": "Fuc(a1-2)Gal6S(b1-4)Glc6S", "summary_of_the_method": "as §1"}, "[25]": {"molecular_target": "Fuc(a1-2)Gal6S(b1-4)GlcNAc", "summary_of_the_method": "as §1"}, "[26]": {"molecular_target": "Fuc(a1-2)[Gal(a1-3)]Gal", "summary_of_the_method": "as §1"}, "[27]": {"molecular_target": "Fuc(a1-2)[Gal(a1-3)]Gal(b1-3)GlcNAc", "summary_of_the_method": "as §1"}, "[28]": {"molecular_target": "Fuc(a1-2)[Gal(a1-3)]Gal(b1-3)GlcNAc(b1-2)Man(a1-3)[Fuc(a1-2)[Gal(a1-3)]Gal(b1-3)GlcNAc(b1-2)Man(a1-6)]Man(b1-4)GlcNAc(b1-4)GlcNAc", "summary_of_the_method": "as §1"}, "[29]": {"molecular_target": "Fuc(a1-2)[Gal(a1-3)]Gal(b1-4)Glc", "summary_of_the_method": "as §1"}, "[30]": {"molecular_target": "Fuc(a1-2)[Gal(a1-3)]Gal(b1-4)GlcNAc", "summary_of_the_method": "as §1"}, "[31]": {"molecular_target": "Fuc(a1-2)[Gal(a1-3)]Gal(b1-4)GlcNAc(b1-2)Man(a1-3)[Fuc(a1-2)[Gal(a1-3)]Gal(b1-4)GlcNAc(b1-2)Man(a1-6)]Man(b1-4)GlcNAc(b1-4)GlcNAc", "summary_of_the_method": "as §1"}, "[32]": {"molecular_target": "Fuc(a1-2)[Gal(a1-3)]Gal(b1-4)[Fuc(a1-3)]GlcNAc", "summary_of_the_method": "as §1"}, "[33]": {"molecular_target": "Fuc(a1-2)[Gal(a1-4)]Gal(b1-4)GlcNAc", "summary_of_the_method": "as §1"}, "[34]": {"molecular_target": "Fuc(a1-2)[GalNAc(a1-3)]Gal", "summary_of_the_method": "as §1"}, "[35]": {"molecular_target": "Fuc(a1-2)[GalNAc(a1-3)]Gal(b1-3)GlcNAc", "summary_of_the_method": "as §1"}, "[36]": {"molecular_target": "Fuc(a1-2)[GalNAc(a1-3)]Gal(b1-3)GlcNAc(b1-2)Man(a1-3)[Fuc(a1-2)[GalNAc(a1-3)]Gal(b1-3)GlcNAc(b1-2)Man(a1-6)]Man(b1-4)GlcNAc(b1-4)GlcNAc", "summary_of_the_method": "as §1"}, "[37]": {"molecular_target": "Fuc(a1-2)[GalNAc(a1-3)]Gal(b1-4)Glc", "summary_of_the_method": "as §1"}}, "note": "Some of the results follow.", "data": [{"binder": "B1", "values": [{"measurement": "glycan array binding signal (z-score)", "setting": "[1]", "result": -0.143}, {"measurement": "glycan array binding signal (z-score)", "setting": "[2]", "result": -0.239}, {"measurement": "glycan array binding signal (z-score)", "setting": "[3]", "result": -0.258}, {"measurement": "glycan array binding signal (z-score)", "setting": "[4]", "result": 0.314}, {"measurement": "glycan array binding signal (z-score)", "setting": "[5]", "result": -0.268}, {"measurement": "glycan array binding signal (z-score)", "setting": "[6]", "result": -0.264}, {"measurement": "glycan array binding signal (z-score)", "setting": "[7]", "result": 0.132}, {"measurement": "glycan array binding signal (z-score)", "setting": "[8]", "result": -0.256}, {"measurement": "glycan array binding signal (z-score)", "setting": "[9]", "result": -0.267}, {"measurement": "glycan array binding signal (z-score)", "setting": "[10]", "result": -0.273}, {"measurement": "glycan array binding signal (z-score)", "setting": "[11]", "result": -0.204}, {"measurement": "glycan array binding signal (z-score)", "setting": "[12]", "result": -0.042}, {"measurement": "glycan array binding signal (z-score)", "setting": "[13]", "result": 0.018}, {"measurement": "glycan array binding signal (z-score)", "setting": "[14]", "result": -0.223}, {"measurement": "glycan array binding signal (z-score)", "setting": "[15]", "result": -0.113}, {"measurement": "glycan array binding signal (z-score)", "setting": "[16]", "result": -0.27}, {"measurement": "glycan array binding signal (z-score)", "setting": "[17]", "result": -0.218}, {"measurement": "glycan array binding signal (z-score)", "setting": "[18]", "result": -0.262}, {"measurement": "glycan array binding signal (z-score)", "setting": "[19]", "result": -0.247}, {"measurement": "glycan array binding signal (z-score)", "setting": "[20]", "result": 0.041}, {"measurement": "glycan array binding signal (z-score)", "setting": "[21]", "result": -0.231}, {"measurement": "glycan array binding signal (z-score)", "setting": "[22]", "result": -0.25}, {"measurement": "glycan array binding signal (z-score)", "setting": "[23]", "result": -0.255}, {"measurement": "glycan array binding signal (z-score)", "setting": "[24]", "result": -0.172}, {"measurement": "glycan array binding signal (z-score)", "setting": "[25]", "result": -0.264}, {"measurement": "glycan array binding signal (z-score)", "setting": "[26]", "result": -0.252}, {"measurement": "glycan array binding signal (z-score)", "setting": "[27]", "result": -0.253}, {"measurement": "glycan array binding signal (z-score)", "setting": "[28]", "result": -0.07}, {"measurement": "glycan array binding signal (z-score)", "setting": "[29]", "result": -0.272}, {"measurement": "glycan array binding signal (z-score)", "setting": "[30]", "result": -0.271}, {"measurement": "glycan array binding signal (z-score)", "setting": "[31]", "result": -0.278}, {"measurement": "glycan array binding signal (z-score)", "setting": "[32]", "result": -0.251}, {"measurement": "glycan array binding signal (z-score)", "setting": "[33]", "result": -0.149}, {"measurement": "glycan array binding signal (z-score)", "setting": "[34]", "result": -0.235}, {"measurement": "glycan array binding signal (z-score)", "setting": "[35]", "result": -0.255}, {"measurement": "glycan array binding signal (z-score)", "setting": "[36]", "result": -0.176}, {"measurement": "glycan array binding signal (z-score)", "setting": "[37]", "result": -0.241}]}]}
